PubChem BioAssay AID720708 (National Center for Advancing Translational Sciences (NCATS), 2013)
Hit rate of the full screen: of about 360,000 compounds, about 660 (0.18%) were called active. The inconclusive results got no clear call from the source; some entries with a clear call stand among them for comparison. Calls follow the shape of the dose curve; as a rule, active = well fitted inhibition curve with a large enough effect; inconclusive = small, poorly fitted or top-dose-only effect; inactive = no such curve, though single readings can be large or run the other way. Potencies of inconclusive entries are left out as doubtful fits.

Target: Rap guanine nucleotide exchange factor 4 (Homo sapiens) (UniProt Q8WZA2)
Chain of UniProt Q8WZA2 (Q8WZA2 whole entry, looked up): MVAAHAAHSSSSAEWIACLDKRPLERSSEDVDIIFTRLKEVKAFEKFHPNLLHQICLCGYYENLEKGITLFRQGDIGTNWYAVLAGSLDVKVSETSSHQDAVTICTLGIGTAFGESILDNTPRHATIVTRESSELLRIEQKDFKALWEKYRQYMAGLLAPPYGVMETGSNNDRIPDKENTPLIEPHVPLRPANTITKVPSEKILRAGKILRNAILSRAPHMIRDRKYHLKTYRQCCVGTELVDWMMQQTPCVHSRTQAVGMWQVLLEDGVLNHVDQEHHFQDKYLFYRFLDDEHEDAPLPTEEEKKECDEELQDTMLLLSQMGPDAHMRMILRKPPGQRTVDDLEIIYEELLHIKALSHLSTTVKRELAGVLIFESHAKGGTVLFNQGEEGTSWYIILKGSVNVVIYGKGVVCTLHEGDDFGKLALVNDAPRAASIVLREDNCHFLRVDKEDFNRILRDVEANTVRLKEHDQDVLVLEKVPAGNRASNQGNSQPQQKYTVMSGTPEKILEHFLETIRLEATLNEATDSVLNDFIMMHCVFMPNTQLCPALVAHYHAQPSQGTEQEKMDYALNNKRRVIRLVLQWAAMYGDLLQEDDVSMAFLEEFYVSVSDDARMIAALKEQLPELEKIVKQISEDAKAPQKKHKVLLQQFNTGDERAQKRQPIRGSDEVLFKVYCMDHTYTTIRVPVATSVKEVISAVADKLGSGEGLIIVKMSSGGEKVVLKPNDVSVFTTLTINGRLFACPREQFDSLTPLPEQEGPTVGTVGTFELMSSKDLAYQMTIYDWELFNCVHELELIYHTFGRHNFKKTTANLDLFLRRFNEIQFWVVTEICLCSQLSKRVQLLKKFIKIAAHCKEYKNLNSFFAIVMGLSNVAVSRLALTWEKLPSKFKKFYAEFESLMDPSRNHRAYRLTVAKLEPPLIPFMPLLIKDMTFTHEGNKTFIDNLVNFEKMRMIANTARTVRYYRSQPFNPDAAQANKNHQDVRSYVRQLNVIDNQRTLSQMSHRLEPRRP
Experiment: qHTS for Antagonist of cAMP-regulated guanine nucleotide exchange factor 2 (EPAC2): primary screen; also: nearly all actives have a fitted effect of over 45% in size
Details: EPAC2 GEF exchange of Rap1B-BODIPY-GDP, fluorescence; activity, negative = inhibition: at 114 µM (top of the series) unless noted
% is scaled to controls: 0 for no effect and ±100 for the full control effect; potency is read from the fitted curve at half-maximal effect; tags tell the direction and shape of the fitted curve.

SMILES	Potency	activity, negative = inhibition
O=C(CSc1nc2ccsc2c(=O)n1CC1CCC(C(=O)O)CC1)c1ccc(Cl)cc1 (stereo unspecified)	inactive	
CCOc1ccc2nc(NC(=O)CSc3nc(-c4ccccc4)c(C#N)c(=O)[nH]3)sc2c1	inconclusive [inhibitor, partial curve]	
COc1cc(/C=C2\SC(=Nc3ccccc3)NC2=O)cc(Cl)c1O	inactive	
Cc1cccc(CN2CCC(Oc3ccc(C(=O)N4CCCCC4)cc3)CC2)c1	inactive	
C(CCc1nn[nH]n1)CCC1CCCCC1	inconclusive [inhibitor, partial curve]	
O=S1(=O)N=C(N/N=C/c2ccccn2)c2ccccc21	inactive	
CCOC(=O)c1cc2c(ccn2C)n1Cc1ccccc1Cl	inconclusive [inhibitor, full curve]	
CCc1ccc(-c2nc(CS(=O)CC(=O)NCc3cccnc3)c(C)o2)cc1 (stereo unspecified)	inconclusive [inhibitor, partial curve]	
O=C1N=c2ccccc2=C1c1sc(NS(=O)(=O)Cc2ccccc2)nc1O	inconclusive [inhibitor, partial curve]	
Cc1cccc(Oc2nc(CN3CCOCC3)nc3sc4c(c23)CCCC4)c1	inconclusive [inhibitor, single point]	
C[C@H](NC(=O)c1nc[nH]c1C(=O)N[C@@H](CCCCNC(=O)OC(C)(C)C)C(=O)OC(C)(C)C)C(=O)OC(C)(C)C	inconclusive [inhibitor, full curve]	
Cc1ccc(SCC(=O)Nc2ccccc2N2CCOCC2)cc1	inconclusive [inhibitor, partial curve]	
O=C1N=c2ccc([N+](=O)[O-])cc2=C1c1sc(=O)[nH]c1O	inconclusive [inhibitor, partial curve]	
Cc1ccc2nc(Br)c3c(c2c1)OC(CBr)C3 (stereo unspecified)	inconclusive [inhibitor, full curve]	
CC(/C=N/n1c(-c2ccncc2)n[nH]c1=S)=C\c1ccco1	inactive	
COc1ccc(C(C)(NC(C)=O)c2nc(-c3cccc(F)c3)cs2)cc1 (stereo unspecified)	inconclusive [inhibitor, full curve]	
Cc1ccc(S(=O)(=O)N2CC3C(=O)C[C@@H](c4ccccc4)N(S(=O)(=O)c4cccc(Cl)c4)C3CC2c2ccccc2)cc1 (stereo partly specified)	inactive	
CC(C)CCn1c(SCc2ccc(Cl)cc2)nc2c1c(=O)[nH]c(=O)n2C	inactive	
COc1cccc(-c2cc(C(=O)N3CCCCC3C)no2)c1 (stereo unspecified)	inactive	
COc1cc(/C=N/NC(=O)c2ccncc2)ccc1OC(=O)c1ccccc1Cl	inconclusive [inhibitor, partial curve, poor fit]	
O=[N+]([O-])c1cccnc1Oc1cc(Cl)c(Cl)cc1Cl	inconclusive [inhibitor, partial curve]	
CC(C)c1ccc(NC(=O)c2ccccc2NC(=O)C2CCCCC2C(=O)O)cc1 (stereo unspecified)	inconclusive [inhibitor, partial curve]	
CCCc1nc2c3ccccc3ccn2c1CC(C)(C)C	inconclusive [inhibitor, partial curve]	
CCOc1ccccc1CN(CCc1ccc2c(c1)OCO2)Cc1ccccn1	inconclusive [inhibitor, partial curve]	

SMILES	Potency	activity, negative = inhibition
CCc1sc(-c2ccccc2)nc1C(=O)OC	inconclusive [inhibitor, full curve]	
Cc1ccc(SCC(=O)Nc2ccccc2C(=O)O)cc1	inactive	
NC(=O)c1cc2ccccc2oc1=NCc1ccccc1	inactive	
N#Cc1c(-c2ccccc2)oc(=O)c2ccccc12	inactive	
CCc1cccc2c(C(=O)COC(=O)c3ccc([N+](=O)[O-])s3)c[nH]c12	inconclusive [inhibitor, full curve]	
COc1ccc(OCC(=O)Nc2ccccc2-c2ccccc2)cc1	inconclusive [inhibitor, partial curve]	
CCOC(=O)Cn1c(=O)cc(C)c2cccc(C)c21	inconclusive [inhibitor, partial curve]	
Cc1ccc(NC(=O)CSc2ccc(C(N)=O)cc2[N+](=O)[O-])cc1C	inactive	
O=C(COc1ccccc1)NC1CCCN(Cc2ccccc2F)C1 (stereo unspecified)	inconclusive [inhibitor, full curve, poor fit]	
Nc1ccccc1N1C(=O)c2cccc3cccc(c23)C1=O	inactive	
NC(=O)C1CCN(C(=O)c2ccc3c(=O)n(Cc4cccc(Br)c4)c(=S)[nH]c3c2)CC1	inconclusive [inhibitor, partial curve]	
CCC(=O)NC(c1ccco1)c1cc(Br)c2cccnc2c1O (stereo unspecified)	inconclusive [inhibitor, partial curve]	
CN(C)c1ccc(C(=O)C(=O)c2ccccc2)cc1	inconclusive [inhibitor, partial curve]	
Cc1cc(C)c2c(CN3CCCCC3)cc(=O)oc2c1	inconclusive [inhibitor, partial curve]	
O=C(OCc1ccccc1)N1CCC2CC1c1c(Cl)cccc12 (stereo unspecified)	inconclusive [inhibitor, partial curve]	
Cc1ccc(C(=O)N[C@H](C(=O)OCc2nnc(-c3ccccc3)o2)C(C)C)cc1	inconclusive [inhibitor, single point]	
O=C1C=C(N2CCOCC2)c2ccccc2C1=O	inconclusive [inhibitor, full curve]	
Cc1ccccc1CN1C(=O)C(C)Sc2ccc(-c3ccco3)cc21 (stereo unspecified)	inconclusive [inhibitor, single point]	
O=C(NN(C(=O)c1ccccc1)c1ccccc1)c1ccccc1	inactive	
COc1ccccc1C1CCN(Cc2ccccc2)CC1	inactive	
Cc1ccc(S(=O)(=O)N2CCOCC2)cc1C(=O)N1CCN(S(=O)(=O)c2ccccc2F)CC1	inconclusive [inhibitor, single point]	
Cc1cc2ccccn2c1C(=O)c1ccc(N/N=C/c2ccc(C(=O)O)cc2)c([N+](=O)[O-])c1	inconclusive [inhibitor, partial curve, poor fit]	
COCc1ccc(CN2CCCC(C(=O)Nc3ccccc3-c3ccc(OC)cc3)C2)o1 (stereo unspecified)		inconclusive: -10.7% [inhibitor]
O=C(C(=Cc1ccc(O)cc1)c1ccccc1)c1ccccc1	inconclusive [inhibitor, partial curve, poor fit]	

SMILES	Potency	activity, negative = inhibition
Cc1ccc2ncc(S(=O)(=O)c3ccccc3)c(N3CCCCC3C)c2c1 (stereo unspecified)		inconclusive: -30.9% [inhibitor]
CN(C)S(=O)(=O)c1ccc(N2CCCC2)c(C(=O)N2CCC(C(N)=O)CC2)c1	inactive	
Cn1cc([C@]2(O)C(=O)Nc3ccc(F)cc32)c2ccccc21	inconclusive [inhibitor, partial curve]	
Cc1cccc(CSc2nncc(=O)[nH]2)c1	inconclusive [inhibitor, single point]	
CCN(CC(=O)Nc1c(F)cccc1F)C(=O)CN(C)S(=O)(=O)c1ccc(F)cc1	inactive	
CC(C)CCCCCCNC(=S)Nc1ccc(S(=O)(=O)N2CCOCC2)cc1	inactive	
CCc1cccc(CC)c1N(COC)C(=O)Cn1cnc2ccccc21		inconclusive: -1.29% [inhibitor]
O=C(O)c1cccc(CN2C(=O)S/C(=C/c3cccc([N+](=O)[O-])c3)C2=O)c1	inconclusive [inhibitor, partial curve]	
COc1cc(C(=O)Nc2scc(-c3ccc(C)cc3)c2C(=O)O)cc(OC)c1OC	inconclusive [inhibitor, partial curve]	
CCOC(=O)Nc1cc2c(c(N)n1)N=C(c1ccccc1)CN2	inactive	
CCCSC1=C(C#N)C(c2cccs2)C(C(=O)Nc2ccccc2)=C(C)N1 (stereo unspecified)	inactive	
COC(=O)N(C)c1nc2ccccc2s1	inactive	
COC(=O)c1c(NC(=O)/C=C/c2ccc3c(c2)OCO3)sc(C)c1C	inactive	
COCCN(C)Cc1nc(C(c2ccccc2)c2ccccc2)no1	inconclusive [inhibitor, full curve]	
Cc1ccc2oc(C(=O)N(Cc3ccc(N(C)C)cc3)CC3CCCO3)c(C)c2c1 (stereo unspecified)	inconclusive [inhibitor, full curve]	
COc1ccccc1C(CCN(Cc1ccccc1)C(C)=O)c1ccco1 (stereo unspecified)	inconclusive [inhibitor, single point]	
COc1ccc(C(CCN(Cc2ccc(OC)c(OC)c2)C(C)=O)c2ccccc2)cc1 (stereo unspecified)	inconclusive [inhibitor, single point]	
Cc1[nH]c2ccccc2c1C(=O)C(=O)N1CCN(c2cccc(Cl)c2)CC1		inconclusive: -20.5% [inhibitor]
COc1ccc(-c2csc(-n3ncc(C(=O)O)c3C(F)(F)F)n2)cc1	inconclusive [inhibitor, partial curve]	
O=C(c1cnc2n(c1=O)CCS2)N1CCN(C(c2ccccc2)c2ccc(Cl)cc2)CC1 (stereo unspecified)	inconclusive [inhibitor, partial curve]	
CC(=O)c1cc(C)c(OC(=O)c2ccccc2)c(C)c1	inconclusive [inhibitor, single point]	
COc1ccc(C(=O)C(c2ccccc2)N2CCOCC2)cc1 (stereo unspecified)	inactive	
N#CC1=C2N=C(N)c3ccccc3N2C2=C(C(=O)CCC2)C1c1ccc(Cl)cc1 (stereo unspecified)	inconclusive [inhibitor, full curve, poor fit]	
